Read counts are not given, so values of variants with three or more changes are uncertain.
B1: CPEB3 Ribozyme (parent)
chain: UAACAGGGGGCCACAGCAGAAGCGUUCACGUCGCAGCCCCUGUCAGAUUCUGGUGAAUCUGCGAAUUCUGCUGUAUAUCUC

Variants of: B1
Test: self-cleavage, relative activity (ratio to wild type); higher = more cleavage; in vitro, sequencing
In short: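 Libraries of CPEB3 self-cleaving ribozyme mutants came from rounds of error-prone PCR and carried barcodes, which DNA sequencing matched to variants. In vitro transcription used T7 RNA polymerase at 37°C for 5 hours, with a further 15 min in DNase I before EDTA stopped the reaction; the ribozymes cleaved during both steps. The RNA was reverse transcribed with template switching and sequenced on Illumina. Relative activity is the cleaved/total read fraction of a variant divided by that of the unmutated ribozyme, averaged over three batches with at least 5 reads.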

Variant	self-cleavage
A5G A20G C34G U41A U54A A57G	0.1
A5G A20G C38U	0.49
A5G A20G C39G	0.42
A5G A20G C71G	0.1
A5G A20G G36C	0.73
A5G A20G G42A	0.37
A5G A20G G73A	1.11
A5G A20G U26A C27U G42A U66C A77G	0.09
A5G A20G U26A U60G C62G C71U U74C	0.02
A5G A20G U31A C40A	0.08
A5G A20G U48C	0.79
A5G A20G U48C A65G	0.56
A5G A20G U60A U69A	0.31
A5G A20G U60C	0.32
A5G A20G U69A A75G U78A	0.15
A5G A20U A21G A45G U51G U54C	0.08
A5G A20U A28G U43C U67C U80A	0.17
A5G A20U A57G U74A	0.46
A5G A20U A64U A77G	0.14
A5G A20U U25C U49C A56G A57G A65G	0
A5G A20U U67A	0.48
A5G A21G A28G G52A U54C U69A U72G	0.06
A5G A21G A28U G30U U41C U60C A65G	0.07
A5G A21G A45U U49C	0.23

Variant	self-cleavage
A5G A21G C37U U66C U78C	0.32
A5G A21G U25C A28G A35U U49C	0.04
A5G A21G U26C A47U A64U	0.06
A5G A21G U26C C40U U41A A65G U80C	0.07
A5G A21G U31C G36A U51C U78A U80A	0.06
A5G A21G U49C U54G U80A	0.09
A5G A21G U51C U66A	0.27
A5G A21G U54G A75U	0.38
A5G A21G U66C	0.58
A5G A21U C34U U58A U78G U80C	0.13
A5G A21U U41A A56G A64G U69A A75U	0.1
A5G A21U U41C	0.29
A5G A21U U43C A45G U72A	0.65
A5G A28C U43C U74C	0.57
A5G A28G A47U U54A A56U A64G U80A	0.09
A5G A28G A56G C59A U60C A77G	0.08
A5G A28G C34U U54G U69C	0.1
A5G A28G C38A U43C U67A	0.11
A5G A28G G33A C40A U43A U69C U72C	0.07
A5G A28G G33U U49C	0.21
A5G A28G G42A U76C U78C	0.08
A5G A28G G46U	0.07
A5G A28G U31C U51C A57G U58C A65G	0.7
A5G A28G U41A U49C U54C	0

Variant	self-cleavage
A5G A28G U49C U60A	0.16
A5G A28U A47G A57G A77U	0.36
A5G A28U A64G U78C	0.41
A5G A28U C34U U48C U51A U58C U80A	0.08
A5G A28U G36A	0.21
A5G A28U U31C U60A	0.28
A5G A28U U54C	0.48
A5G A28U U80C	0.31
A5G A35G A57C U66C U74C	0.32
A5G A35G A64G	1.09
A5G A35G G36U C39G U43C U51C U69G	0.28
A5G A35G U43A U60C U78C	1.15
A5G A35G U48C	0.92
A5G A35G U54A	1.16
A5G A35G U54C G70A	0.56
A5G A35G U69G	1
A5G A35G U72A	1.1
A5G A35U U43C A45G	0.23
A5G A35U U48C A65G	0.07
A5G A35U U51C A64G U67C	0.05
A5G A45G C50U A64G U72G	0.2
A5G A45G G63A U66A	0.39
A5G A45G U51A	0.46
A5G A45U A47G U67C	0.29

Variant	self-cleavage
A5G A45U U48C	0.08
A5G A45U U60C U69C U80C	0.21
A5G A47C C62G U72C U78A	0.15
A5G A47G U48C U74A	0.49
A5G A47G U60C U72A	0.1
A5G A47U U49C U78C	0.34
A5G A56U A57U A77U	0.15
A5G A57G A64G U78C	0.48
A5G A57G A65G U66C	0.21
A5G A57G G70A	0.53
A5G A57G U67C	0.24
A5G A65G U76C	0.32
A5G C11A A20G U26C A57G	0.5
A5G C11A G33U U43C A45U U74A U80C	0.05
A5G C11G C34U C39U U69C U72C U74C	0.07
A5G C11G U25C C29G A35U U48G U54C	0.06
A5G C11U A18C U67C	0.16
A5G C11U A77G	0.24
A5G C11U U25C A35U U69C C81U	0.03
A5G C12A A13G U25C U26G	0.16
A5G C12U A15G	0.34
A5G C12U A15G U54A C59A G61C	0.03
A5G C12U A20U A21U A47U U72C G73A	0.08
A5G C12U A21U A47U U58A U66A	0.81

Variant	self-cleavage
A5G C12U G19A U54C U58C U66C	0.1
A5G C12U U43C U54C U58C	0.17
A5G C14A C29U A56G C62A	0.2
A5G C14U A64U	0.51
A5G C14U C34A U41A G52U	0.08
A5G C17A A28G A75U U78C	0.35
A5G C17U A18G A20G U31A A45C A47U	0.06
A5G C17U A18G U67C	0.25
A5G C17U A45G A56G A64G	0.06
A5G C17U C23U C40A U41C A57G U66C	0.16
A5G C17U C40A U41C U60A A64G U66C	0.16
A5G C17U C40A U58C	0.1
A5G C17U G30U U43C U66C U69G A75G	0.07
A5G C17U U41A U48A A56G U74C	0.05
A5G C23A U26A A35U U54C A65U U72G	0.04
A5G C23A U76C	0.09
A5G C23G U25C A45U U69C	0.08
A5G C23U U25C	0.04
A5G C23U U26C A35G U60C U67C	0.22
A5G C27A G36U U51G	0.13
A5G C27U U31C U51A A56G	0.33
A5G C27U U41A A65C	0.13
A5G C29A U41A U48G	0.14
A5G C29U U51C	0.14

Variant	self-cleavage
A5G C32A A64G U72C	0.24
A5G C32G U49C U51C U54C	0.09
A5G C32U U69C U74A	0.11
A5G C37A A56G U72C	0.24
A5G C37U U60C	0.28
A5G C38A A64C	0.22
A5G C38A U43C U48C U51C A65G U69C	0.03
A5G C38U U80C	0.57
A5G C39G U54C U69C U72C	0.03
A5G C39U A45U U80C	0.11
A5G C40U G53A A56G A65G U69C	0.08
A5G C40U U54C A64G U74C U78C	0.11
A5G C62U U67C U80A	0.16
A5G G6A C32A A35G U67A	0.17
A5G G6U A28U U80C	0.66
A5G G6U G61A U74C	0.49
A5G G6U U69C	0.08
A5G G7A A15U A18U U48G A64G	0.07
A5G G7A A18G U48C A65G	0.36
A5G G7A C11U U25C U49C A65G U69C	0.05
A5G G7A G8A C14U U48C A65G	0.06
A5G G7A G9U A45G U58C U72A	0.05
A5G G7A G10U U49C A64G	0.09
A5G G7C A18G A56G U60G A65G	0.09

Variant	self-cleavage
A5G G7C A21C	0.08
A5G G7C A35U U49C G52U	0.31
A5G G7C U25C U26C U54A A75U U80C	0.05
A5G G7C U49C	0.79
A5G G7U A13G A18U U26A U74C	0.52
A5G G7U A15G A35C A57G U78C	0.36
A5G G7U A28G U72C	0.4
A5G G7U G30A U72C	0.08
A5G G7U U54C G70A U72C	0.09
A5G G8A A20G A21U C27U G63A	0.14
A5G G8A A77G	0.1
A5G G8A C12G A57G	0.07
A5G G8A G33C U43A A57G U60C U80A	0.05
A5G G8A U25C A35G U54C	0.69
A5G G8A U58C U69A	0.13
A5G G8A U74C	0.14
A5G G8C A15U U26C A65U U69A	0
A5G G8C A18G A28G U60C U67C	0.13
A5G G8U U25C U58C G61U	0.07
A5G G9A A15U A20G U72C	0.08
A5G G9A A15U U69C C71U	0.16
A5G G9A A18G U25C	0.27
A5G G9A A21G U49C A56G A57G U72C	0.01
